Some of the results follow. Most values come without repeats; read them as rough.
Tests used:
Test in all cases: cell count relative to DMSO control; melanoma cells; higher = more viable cells
Conditions in all cases: library dose: standard library concentration; 72 h
SkMel28 = test system: SkMel28
SkMel2 = test system: SkMel2
SkMel30 = test system: SkMel30
SkMel5 = test system: SkMel5
UACC257 = test system: UACC257
UACC62 = test system: UACC62
WM115 = test system: WM115
WM1716 = test system: WM1716
WM1745 = test system: WM1745
WM3526 = test system: WM3526
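Also: cells treated in 1,536-well plates, then fixed and DAPI-stained, with nuclei counted from automated high-throughput microscope images.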

Row | Structure (SMILES) | cell count (SkMel28) | cell count (SkMel2) | cell count (SkMel30) | cell count (SkMel5) | cell count (UACC257) | cell count (UACC62) | cell count (WM115) | cell count (WM1716) | cell count (WM1745) | cell count (WM3526)
1 | C[C@@H](Oc1cc(-c2cnn(C3CCNCC3)c2)cnc1N)c1c(Cl)ccc(F)c1Cl [Crizotinib] + NC(=O)Nc1cc(-c2cccc(F)c2)sc1C(=O)N[C@H]1CCCNC1 [AZD7762] (first compound 1 µM, partner dose 0.1 µM) | 41.4% | 94% | 76.6% | 63.2% | 74% | 83.8% | 45.1% | 71.1% | 37.1% | 45.2%
2 | C[C@@H](Oc1cc(-c2cnn(C3CCNCC3)c2)cnc1N)c1c(Cl)ccc(F)c1Cl [Crizotinib] + CO[C@H]1C[C@@H]2CC[C@@H](C)[C@@](O)(O2)C(=O)C(=O)N2CCCC[C@H]2C(=O)O[C@H]([C@H](C)C[C@@H]2CC[C@@H](OCCO)[C@H](OC)C2)CC(=O)[C@H](C)/C=C(\C)[C@@H](O)[C@@H](OC)C(=O)[C@H](C)C[C@H](C)/C=C/C=C/C=C/1C [everolimus] (first compound 1 µM, partner dose 0.1 µM) | 39.2% | 79.6% | 69% | 60.1% | 104% | 70.9% | 54.9% | 69.5% | 88.8% | 70.7%
3 | CN1CCN(c2ccc3nc(-c4c(N)c5c(F)cccc5[nH]c4=O)[nH]c3c2)CC1 [Dovitinib] + C=C(c1ccc(C(=O)O)cc1)c1cc2c(cc1C)C(C)(C)CCC2(C)C [Bexarotene] (first compound 0.5 µM, partner dose 10 µM) | 54.7% | 58.1% | 79.2% | 66% | 68.4% | 80.9% | 95.5% | 83.6% | 77.9% | 75.6%
4 | CN1CCN(c2ccc3nc(-c4c(N)c5c(F)cccc5[nH]c4=O)[nH]c3c2)CC1 [Dovitinib] + COc1cc2c(Oc3ccc4[nH]c(C)cc4c3F)ncnc2cc1OCCCN1CCCC1 [cediranib] (first compound 0.5 µM, partner dose 2 µM) | 54.6% | 47% | 71.6% | 54.2% | 68.3% | 55.5% | 63.8% | 76.9% | 32.4% | 72.7%
5 | CNC(=O)c1cc(Oc2ccc(NC(=O)Nc3ccc(Cl)c(C(F)(F)F)c3)cc2)ccn1 [sorafenib] + Cn1nnc2c(C(N)=O)ncn2c1=O [temozolomide] (first compound 2 µM, partner dose 10 µM) | 33.3% | 86.3% | 74.2% | 95.6% | 87.8% | 57.4% | 72.7% | 60.5% | 107% | 80.7%
6 | CS(=O)(=O)CCNCc1ccc(-c2ccc3ncnc(Nc4ccc(OCc5cccc(F)c5)c(Cl)c4)c3c2)o1 [lapatinib] + COCC[n+]1c2c(n(Cc3cnccn3)c1C)C(=O)c1ccccc1C2=O [YM155] (first compound 4 µM, partner dose 0.002 µM) | 4.69% | 24.7% | 51.3% | 9.92% | 14.9% | 23.3% | 20.7% | 42.7% | 44.8% | 21.2%
7 | CN1CCN(c2ccc3nc(-c4c(N)c5c(F)cccc5[nH]c4=O)[nH]c3c2)CC1 [Dovitinib] + O=C(O)[C@@H]1[O][Sb](=[O])([O][Sb]2(=[O])[O][C@H]([C@H](O)CO)[C@H](O)[C@H](C(=O)O)[O]2)[O][C@H]([C@H](O)CO)[C@@H]1O [stibogluconate] (first compound 0.5 µM, partner dose 10 µM) | 52.8% | 89% | 78.1% | 73.4% | 97.1% | 77.6% | 61.8% | 68.2% | 67.5% | 72.7%
8 | C[C@@H](Oc1cc(-c2cnn(C3CCNCC3)c2)cnc1N)c1c(Cl)ccc(F)c1Cl [Crizotinib] + Nc1cccc2c1CN(C1CCC(=O)NC1=O)C2=O [lenalidomide] (first compound 1 µM, partner dose 5 µM) | 52.8% | 90.9% | 128% | 65.4% | 92.1% | 101% | 74.5% | 95.2% | 76.8% | 68.6%
9 | C[C@@H](Oc1cc(-c2cnn(C3CCNCC3)c2)cnc1N)c1c(Cl)ccc(F)c1Cl [Crizotinib] + CO[C@@H]1[C@H](N(C)C(=O)c2ccccc2)C[C@H]2O[C@]1(C)n1c3ccccc3c3c4c(c5c6ccccc6n2c5c31)C(=O)NC4 [Midostaurin] (first compound 1 µM, partner dose 0.4 µM) | 41% | 60.6% | 84.6% | 46.9% | 71.7% | 57.7% | 36.8% | 40.6% | 35% | 63.2%
10 | C=CCNC1=C2C[C@@H](C)C[C@H](OC)[C@H](O)[C@@H](C)/C=C(\C)[C@H](OC(N)=O)[C@@H](OC)/C=C\C=C(/C)C(=O)NC(=CC1=O)C2=O [Tanespimycin] + O=C(CCCCCCC(=O)Nc1ccccc1)NO [vorinostat] (first compound 0.01 µM, partner dose 0.4 µM) | 45.7% | 59% | 95.7% | 45.2% | 80.7% | 62.4% | 27.6% | 81.1% | 59.4% | 78.4%
11 | C[C@@H](Oc1cc(-c2cnn(C3CCNCC3)c2)cnc1N)c1c(Cl)ccc(F)c1Cl [Crizotinib] + CS(=O)(=O)CCNCc1ccc(-c2ccc3ncnc(Nc4ccc(OCc5cccc(F)c5)c(Cl)c4)c3c2)o1 [lapatinib] (first compound 1 µM, partner dose 4 µM) | 47.4% | 72.3% | 78.2% | 48.7% | 84.4% | 49.7% | 43% | 62.6% | 32.4% | 70.6%
12 | CS(=O)(=O)CCNCc1ccc(-c2ccc3ncnc(Nc4ccc(OCc5cccc(F)c5)c(Cl)c4)c3c2)o1 [lapatinib] + CO[C@@H]1[C@H](N(C)C(=O)c2ccccc2)C[C@H]2O[C@]1(C)n1c3ccccc3c3c4c(c5c6ccccc6n2c5c31)C(=O)NC4 [Midostaurin] (first compound 4 µM, partner dose 0.4 µM) | 40.2% | 36.5% | 40.6% | 24.3% | 59.6% | 48.5% | 44.9% | 35.2% | 43.8% | 44.7%
13 | CS(=O)(=O)CCNCc1ccc(-c2ccc3ncnc(Nc4ccc(OCc5cccc(F)c5)c(Cl)c4)c3c2)o1 [lapatinib] + CC(C)(C)c1cnc(CSc2cnc(NC(=O)C3CCNCC3)s2)o1 [SNS-032] (first compound 4 µM, partner dose 0.05 µM) | 29.8% | 65.8% | 83.2% | 55% | 87.9% | 40.2% | 53% | 81.4% | 58.2% | 73.1%
14 | CN1CCN(c2ccc3nc(-c4c(N)c5c(F)cccc5[nH]c4=O)[nH]c3c2)CC1 [Dovitinib] + Cn1cncc1[C@@](N)(c1ccc(Cl)cc1)c1ccc2c(c1)c(-c1cccc(Cl)c1)cc(=O)n2C [tipifarnib] (first compound 0.5 µM, partner dose 0.05 µM) | 50.3% | 48.1% | 68.7% | 39.1% | 75% | 59.7% | 45.9% | 51.3% | 49.7% | 53.6%
15 | CN1CCN(c2ccc3nc(-c4c(N)c5c(F)cccc5[nH]c4=O)[nH]c3c2)CC1 [Dovitinib] + CO[C@@H]1[C@H](N(C)C(=O)c2ccccc2)C[C@H]2O[C@]1(C)n1c3ccccc3c3c4c(c5c6ccccc6n2c5c31)C(=O)NC4 [Midostaurin] (first compound 0.5 µM, partner dose 0.4 µM) | 57.9% | 38% | 95.2% | 50.9% | 80.1% | 55.1% | 39.9% | 68.2% | 33.6% | 79.4%
16 | CNC(=O)c1cc(Oc2ccc(NC(=O)Nc3ccc(Cl)c(C(F)(F)F)c3)cc2)ccn1 [sorafenib] + CN(C)S(=O)(=O)c1ccc2c(c1)/C(=C/c1cc3c([nH]1)CCCC3)C(=O)N2 [SU6656] (first compound 2 µM, partner dose 2 µM) | 60.1% | 70.1% | 74.6% | 61.9% | 84.9% | 70% | 49.7% | 49.5% | 48.9% | 61%
17 | C[C@@H](Oc1cc(-c2cnn(C3CCNCC3)c2)cnc1N)c1c(Cl)ccc(F)c1Cl [Crizotinib] + C=CCNC1=C2C[C@@H](C)C[C@H](OC)[C@H](O)[C@@H](C)/C=C(\C)[C@H](OC(N)=O)[C@@H](OC)/C=C\C=C(/C)C(=O)NC(=CC1=O)C2=O [Tanespimycin] (first compound 1 µM, partner dose 0.01 µM) | 62.7% | 93.4% | 106% | 85.6% | 94.4% | 78.2% | 28.7% | 83% | 56.7% | 84%
18 | CS(=O)(=O)CCNCc1ccc(-c2ccc3ncnc(Nc4ccc(OCc5cccc(F)c5)c(Cl)c4)c3c2)o1 [lapatinib] + OCCn1cc(-c2cnc3nnn(Cc4ccc5ncccc5c4)c3n2)cn1 [PF04217903] (first compound 4 µM, partner dose 5 µM) | 80.6% | 106% | 77.6% | 57.3% | 87% | 80.2% | 100% | 72.4% | 87.4% | 85.5%
19 | CN1CCN(c2ccc3nc(-c4c(N)c5c(F)cccc5[nH]c4=O)[nH]c3c2)CC1 [Dovitinib] + OCCn1cc(-c2cnc3nnn(Cc4ccc5ncccc5c4)c3n2)cn1 [PF04217903] (first compound 0.5 µM, partner dose 5 µM) | 45.9% | 47.4% | 83.2% | 57.8% | 75.1% | 85.7% | 62.1% | 59% | 62.3% | 64.2%
